In a compilation of properties of binary mixtures (doi:10.1021/acs.jced.0c00740):
Some of these densities may be calculated back from excess volumes.

Assay: xn = mol fraction of the nth substance listed
Settings: 101 kPa

C[NH+](C)C.O=S(=O)([N-]S(=O)(=O)C(F)(F)F)C(F)(F)F + N#CCCCC#N
x1 = 0.2167
Settings	mass density [kg/m3]
278 K	1222.3
283 K	1217.8
293 K	1208.8
303 K	1199.8
308 K	1195.4
313 K	1191
323 K	1182.1
328 K	1177.7
333 K	1173.3
338 K	1168.9
343 K	1164.5
348 K	1160.1

C[S+](C)C.O=S(=O)([N-]S(=O)(=O)C(F)(F)F)C(F)(F)F + N#CCCCC#N
x1 = 0.2085
Settings	mass density [kg/m3]
283 K	1232.5
288 K	1228.1
293 K	1223.7
298 K	1219.3
308 K	1210.6
313 K	1206.3
323 K	1197.7
343 K	1180.3
353 K	1171.7
